Test results from article PMC4336329 (PLoS ONE, 2015).
The whole screen tested about 310,000 compounds, of which about 2,200 (0.71%) showed an effect of 50% or more. Effects have a minus sign here. This is one part of the list.

Biological target: human ether-à-go-go-related gene (hERG) potassium channel (human, UniProt Q12809)
Assay: primary screen, population patch clamp on CHO cells stably expressing hERG

Sequence of human ether-à-go-go-related gene (hERG) potassium channel (Q12809 whole entry, looked up): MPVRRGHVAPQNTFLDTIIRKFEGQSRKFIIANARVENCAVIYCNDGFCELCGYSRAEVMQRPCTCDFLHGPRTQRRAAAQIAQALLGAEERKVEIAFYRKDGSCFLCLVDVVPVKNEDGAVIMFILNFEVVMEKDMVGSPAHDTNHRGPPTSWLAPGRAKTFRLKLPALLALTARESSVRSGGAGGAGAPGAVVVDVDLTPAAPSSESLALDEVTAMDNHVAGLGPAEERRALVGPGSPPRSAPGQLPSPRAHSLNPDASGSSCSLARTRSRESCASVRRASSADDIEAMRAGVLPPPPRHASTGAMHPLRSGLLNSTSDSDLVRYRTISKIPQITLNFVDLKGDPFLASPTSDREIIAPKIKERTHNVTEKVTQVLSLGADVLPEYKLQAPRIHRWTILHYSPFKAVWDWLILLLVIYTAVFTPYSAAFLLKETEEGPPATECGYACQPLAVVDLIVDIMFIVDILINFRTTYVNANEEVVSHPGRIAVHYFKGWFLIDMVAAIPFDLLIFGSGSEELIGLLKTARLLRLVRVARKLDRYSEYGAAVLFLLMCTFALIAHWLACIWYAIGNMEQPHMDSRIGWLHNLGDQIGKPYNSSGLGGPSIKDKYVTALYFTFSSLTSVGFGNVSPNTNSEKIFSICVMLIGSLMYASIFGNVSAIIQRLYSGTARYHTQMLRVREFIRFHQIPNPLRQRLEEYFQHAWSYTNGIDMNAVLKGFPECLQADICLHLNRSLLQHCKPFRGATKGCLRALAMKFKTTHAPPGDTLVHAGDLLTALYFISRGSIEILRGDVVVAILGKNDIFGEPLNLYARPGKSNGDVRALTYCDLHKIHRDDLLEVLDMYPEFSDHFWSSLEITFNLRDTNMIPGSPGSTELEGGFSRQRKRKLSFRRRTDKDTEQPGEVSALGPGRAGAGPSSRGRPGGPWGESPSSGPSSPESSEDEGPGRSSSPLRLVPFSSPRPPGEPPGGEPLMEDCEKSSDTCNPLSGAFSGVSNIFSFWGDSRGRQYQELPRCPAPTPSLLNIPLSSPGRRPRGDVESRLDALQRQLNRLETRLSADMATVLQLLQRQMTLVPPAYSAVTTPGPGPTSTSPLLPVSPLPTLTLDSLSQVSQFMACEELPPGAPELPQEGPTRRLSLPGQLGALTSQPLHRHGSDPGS

| Structure (SMILES) | hERG current change (%, negative = inhibition) at 1uM [%] |
| --- | --- |
| CC(C)Cn1c(N)c(C(=O)COC(=O)c2cnc(Cl)c(Cl)c2)c(=O)n(C)c1=O | -5.44 |
| Cc1cccc(N2C(=O)C3CCCN3C2=S)c1 (stereo not drawn) | 10.8 |
| O=C(CNC(=O)c1ccc(Br)o1)NCC1CCCCC1 | 5.83 |
| COc1ccc(CCn2c(-c3cc([N+](=O)[O-])cc([N+](=O)[O-])c3)nc3nc4ccccc4nc32)cc1OC | 1.88 |
| CC1CCCN(C(=O)CN2C(=O)c3ccccc3S2(=O)=O)C1 (stereo not drawn) | 13.2 |
| O=C(c1c[nH]c2ccc(S(=O)(=O)N3CCOCC3)cc2c1=O)N1CCC2(CC1)OCCO2 | 9.73 |
| NS(=O)(=O)c1ccc(CCNC(=O)c2ccc[nH]c2=S)cc1 | 11.6 |
| O=C(COC(=O)CCSc1ccc(Cl)cc1)NCCc1ccccc1 | 12.9 |
| Cc1ccnc(NC(=O)CCCNC(=O)c2ccc(Cl)cc2)c1 | 16.3 |
| N=c1c(C(=O)NCCc2ccccc2)cc2c(=O)n3ccccc3nc2n1Cc1ccco1 | -67.5 |
| COc1ccc(OC)c(NC(=O)Cc2cccs2)c1 | 14.6 |
| Cc1ccc(S(=O)(=O)Nc2nc(C)c(C(=O)NNS(=O)(=O)c3cc(C)ccc3C)s2)cc1 | 13.1 |
| Cn1c(=O)oc2cc(S(=O)(=O)Nc3ccccc3F)ccc21 | 14 |
| C=CCOc1ccccc1CNc1cccc(F)c1 | 19 |
| COc1cc(/C=N/NC(=O)c2ccccc2O)ccc1OC(=O)CC1SC(=O)NC1=O (stereo not drawn) | 5.67 |
| O=C(O)c1cccc(NC2=C(N3CCOCC3)C(=O)c3ccccc3C2=O)c1 | 10.3 |
| COc1cc(OC)cc(C(=O)NC(C)c2cnn(-c3ccccc3C)c2C)c1 (stereo not drawn) | 7.56 |
| Cl.O=C(CCS(=O)(=O)c1ccccc1)N(CCCN1CCOCC1)c1nc2ccccc2s1 | -3.95 |
| CCOc1ccc(OCC(=O)Nc2ccc(OC)cc2)cc1 | 19.6 |

| Structure (SMILES) | hERG current change (%, negative = inhibition) at 1uM [%] |
| --- | --- |
| CS(=O)(=O)c1ccc(Cl)c(NC(=O)CSc2nc3ccccc3c(=O)n2CCCN2CCOCC2)c1 | -1.98 |
| CC(=O)Nc1ccc(N2CCN(c3ccc(F)cc3)CC2)cc1 | 12.2 |
| CCOC(=O)c1ccccc1NC(=O)CSc1nc2ccccc2o1 | 2.67 |
| S=C(NCC1CCCO1)NC1CC1 (stereo not drawn) | 2.37 |
| Cn1nc(C(=O)NCC2CCCO2)c2ccccc2c1=O (stereo not drawn) | 0.281 |
| C=C1CCN(C(C)C(=O)OC)S(=O)(=O)c2ccccc21 (stereo not drawn) | 5.5 |
| COc1ccccc1NC(=O)CCN1C(=O)/C(=C/c2cc(OC)c(OC)c(OC)c2)SC1=S | 11.8 |
| COc1cccc(C(=O)Nc2sc3c(c2C#N)CCN(C(C)=O)C3)c1 | 8.32 |
| Cc1ccccc1C(C(=O)NCc1ccco1)N(CC1CCCO1)C(=O)Cn1nnc2ccccc21 (stereo not drawn) | 1.9 |
| c1ccc(-n2nnnc2SCCCSc2nc3ccccc3s2)cc1 | 14.6 |
| Cc1cccn2c(CNCCSc3nccn3C)c(C(=O)N3CCCCC3)nc12 | 8.67 |
| COc1ccc(-c2csc(NC(=O)Cn3nc(C)cc3C)n2)cc1 | 16.5 |
| Cc1cc(NC(=O)CSc2nnc(-c3ccoc3C)n2N)no1 | 14.8 |
| Cc1nc(S(=O)(=O)c2ccc(Cl)cc2)c(NCc2ccccc2)o1 | 16.4 |
| COc1cc(OC)cc(C(=O)OCC(=O)Nc2ccc(N3CCCCC3)cc2)c1 | 8.53 |
| CCOC(=O)c1ccc(NC(=O)CSc2ccc(-c3ccncc3)nn2)cc1 | 9.76 |
| Cc1cc(OCC(=O)NNC(=O)c2cccs2)ccc1Br | 13 |
| CCN(CC)C(=O)C(=O)N/N=C/c1cccc(Br)c1 | -5.32 |
| CC(C)CCNC(=O)C(c1ccco1)N(CCCO)C(=O)Cn1nnc(-c2ccc(F)cc2)n1 (stereo not drawn) | -9.57 |

| Structure (SMILES) | hERG current change (%, negative = inhibition) at 1uM [%] |
| --- | --- |
| CCCCC1CCC(C(=O)N(CC(C)C)c2c(N)n(CCCC)c(=O)[nH]c2=O)CC1 (stereo not drawn) | 10.8 |
| CCCCOc1ccc(C(=S)N2CCC(C(N)=O)CC2)cc1 | 11.2 |
| CN(C(=O)CN1C(=O)S/C(=C\c2ccccc2Cl)C1=O)C1CCS(=O)(=O)C1 (stereo not drawn) | 6.12 |
| O=C(O)c1cc([N+](=O)[O-])ccc1NCCCc1ccccc1 | 16.9 |
| CCCCOc1ccc(-c2[nH]ncc2C=O)cc1 | 9.46 |
| Cc1ccc(-n2c3c(cc(C(=O)NC4CCSC4=O)c2=O)C(=O)CCC3)cc1 (stereo not drawn) | 2.02 |
| c1coc(CSCc2cn3cccnc3n2)c1 | 11.7 |
| Fc1ccc(CN2CCN(c3ccc(Cl)cc3)CC2)cc1 | 3.3 |
| O=C(COC(=O)c1ccc2c(c1)OCO2)Nc1ncc(Cl)cc1Cl | 16.3 |
| CCn1c(C)nc2cc(C(=O)N/N=C/c3ccc(OC)c(O)c3)ccc21 | 2.59 |
| Cc1ccc(C(=O)NCCc2ccccn2)cc1S(=O)(=O)N1CCOCC1 | 7.29 |
| CC(C)Oc1ccc(CCN)cc1Cl.Cl | 1.19 |
| O=C(CSc1nc2ccsc2c(=O)n1-c1ccccc1)N1CCCC1 | 6.38 |
| COc1ccc(OCC(=O)Nc2ccccc2C(=O)NC2CC2)cc1 | 13 |
| COC(=O)c1c(NC(=O)C2CC2)sc2c1CCN(C(C)=O)C2 | 1.12 |
| O=C(O)C(=O)O.O=S(=O)(c1ccc2ccccc2c1)N1CCN(C2Cc3ccccc3C2)CC1 | 1.28 |
| CCOC(=O)CSc1nnc(NC(=O)C2CC(=O)N(c3ccc(F)cc3)C2)s1 (stereo not drawn) | 14.1 |
| NC(=O)c1ccc(N2CCN(S(=O)(=O)c3ccccc3)CC2)c([N+](=O)[O-])c1 | 7.92 |
| CCOCC(=O)Nc1cc(-c2cn3cccnc3n2)ccc1C | 10 |
